This is one part of the list.
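Note: jurkat cells carrying a lentiviral library of mutant zinc finger degrons fused to EGFP plus mCherry, mCherry+ cells FACS sorted, degron abundance counted by next-generation sequencing.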

This test concerns the target no compound (DMSO). Kind of test: log2 fold change of degron read counts, EGFP-low vs EGFP+ sorted cells; higher = lower degron-EGFP level without compound (poor expression or instability). The settings on record: compound: DMSO control; 18 h.
As for FKCNQCGRHFTQKGNLLRHIKL, the “log2 fold change of degron read counts” value was -0.18.

Consider FECEICGHVFTQKGNLLRHIKL, for which the “log2 fold change of degron read counts” value is -2.24.

In the case of FICDQCGASFTQKGNLLRHIKL, the “log2 fold change of degron read counts” value is -2.2.

Turning to LECNQCGFLCTQKGNLLRHIKL, the “log2 fold change of degron read counts” value came to 0.741.

Consider FKCPICGAFFTQKGNLLRHIKL, for which the “log2 fold change of degron read counts” value is -0.0914.

FECPQCGATFTQKGNLLRHIKL: the “log2 fold change of degron read counts” value is -1.

On to FACPICGHHFTQKGNLLRHIKL, for which the “log2 fold change of degron read counts” value is -0.338.

FYCPICGAEFTQKGNLLRHIKL: the “log2 fold change of degron read counts” value is -0.0356.

Regarding FECNVCGAAFTQKGNLLRHIKL, the “log2 fold change of degron read counts” value is -2.02.

Take FACEQCGATFTQKGNLLRHIKL: the “log2 fold change of degron read counts” value is -2.15.

In the case of FSCEICGADFTQKGNLLRHIKL, the “log2 fold change of degron read counts” value was -2.25.

For the sequence FKCPQCGALFTQKGNLLRHIKL, the “log2 fold change of degron read counts” value was -0.493.

As for FSCNQCGHDFTQKGNLLRHIKL, the “log2 fold change of degron read counts” value is -0.62.

For the sequence FKCNQCGRGFTQKGNLLRHIKL, the “log2 fold change of degron read counts” value was -0.496.

In the case of FVCNQCGHFFTQKGNLLRHIKL, the “log2 fold change of degron read counts” value was found to be 0.00673.

With FACNICGATFTQKGNLLRHIKL, the “log2 fold change of degron read counts” value was -0.832.

Regarding FYCPVCGADFTQKGNLLRHIKL, the “log2 fold change of degron read counts” value is -0.148.

Regarding FMCEICGAAFTQKGNLLRHIKL, the “log2 fold change of degron read counts” value was -1.79.

On to FHCDVCGAHFTQKGNLLRHIKL, for which the “log2 fold change of degron read counts” value was -1.58.

FGCNQCGRRFTQKGNLLRHIKL: the “log2 fold change of degron read counts” value is -0.0401.

For the sequence FACEICGRYFTQKGNLLRHIKL, the “log2 fold change of degron read counts” value is -0.432.

As for LSCNQCGFECTQKGNLLRHIKL, the “log2 fold change of degron read counts” value is -0.439.

FYCEICGRCFTQKGNLLRHIKL: the “log2 fold change of degron read counts” value was -0.889.

Take LMCPICGFWCTQKGNLLRHIKL: the “log2 fold change of degron read counts” value was found to be 1.71.

As to FFCPVCGAHFTQKGNLLRHIKL, the “log2 fold change of degron read counts” value is -0.185.

With FWCEICGHEFTQKGNLLRHIKL, the “log2 fold change of degron read counts” value is -1.02.

In the case of FCCDICGALFTQKGNLLRHIKL, the “log2 fold change of degron read counts” value was -0.806.

For the sequence FQCNQCGACFTQKGNLLRHIKL, the “log2 fold change of degron read counts” value was -0.0366.

FVCEICGASFTQKGNLLRHIKL: the “log2 fold change of degron read counts” value is -1.31.

As to FHCDQCGADFTQKGNLLRHIKL, the “log2 fold change of degron read counts” value was -0.914.

For the sequence FFCEICGAFFTQKGNLLRHIKL, the “log2 fold change of degron read counts” value was -0.342.

For the sequence FACPICGREFTQKGNLLRHIKL, the “log2 fold change of degron read counts” value is -0.313.

The values are drawn from the supplement of paper PMC12645437, “Orthogonal IMiD-Degron Pairs Induce Selective Protein Degradation in Cells” (ACS Chemical Biology, 2025).
